Assay results published in the supplement of paper PMC10126150.
Sequences with one replicate were seen in a single cluster, so their values are uncertain.

Test system: ATP
Assay: switch fluorescence ratio, 500 uM ATP over buffer (Cy3 cluster intensity, sum of 5 cycles each) (fold (ratio)); higher = stronger signal-on switching upon ATP binding; sequences stand for … in TCGTCGGCAGCGTCAGATGTGTATAAGAGACAGTTTTTTTTTTTTTTTTTTTTTTTTT…TC
Conditions: aptamer strand: ATP DNA aptamer (quencher-CACCTGGGGGAGTATTGCGGAGGAAGG + anchor), 100 nM annealed; ATP concentration: 500 uM; one replicate
Method in brief: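 Switching-strand clusters labelled with Cy3 on a modified Illumina MiSeq flow-cell were annealed to 100 nM quencher-labelled ATP aptamer, imaged in selection buffer, and re-imaged after 15 min with 500 uM ATP at 22 °C. This was done over five cycles with NaOH stripping and re-annealing in between. The fluorescence ratio is summed target-cycle over summed buffer-cycle Cy3 intensity per cluster, averaged per switch-domain sequence, excluding clusters outside 100-1000 RFU.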
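Note: ATP exposure 15 min at 22 °C before imaging.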

Sequence	switch fluorescence ratio
ATTGACTAGG	0.934
GGGCCACAGT	1.01
ATGTATTAGT	1.01
TAGGATGCGA	1.04
CGCCTGGAGC	1.14
GGCCGGGTCA	0.946
GTACCCCCGT	1.48
TATCCGTTGC	1.44
GTGTTGGAGC	0.972
GTGTAACCCA	0.972
AAATTAACAC	1.04
TTAGGTTGC	0.987
TGGCGGGTT	1.03
ATTGGATGAG	0.996
GCATTGCTTA	1.01
AGGATTCGAT	0.978
CGAGAACTGT	1.02
GGGACCGCCC	1.35
TATGAGGTAT	0.983
GACTGGCCGG	1.02
AGTAAGGTAC	1.03
TGTATGTTGT	0.977
AAACGAGAAA	0.996
TGAGAACGTT	1.05
GCGTTCAGGG	0.989

Sequence	switch fluorescence ratio
AGACGCCTCG	1
ATATCTTGGG	0.991
CTGCATCTTA	1.05
GAGAGGGGTG	1.03
GTAGCGGTCA	1.02
TCTTTAGAGG	0.995
CAACCACGGA	1.13
CCCTTGAT	1.01
GGTATGCTTG	1.08
TCCCAAGCAT	2.52
CTCATAAACG	1.03
TAGACCGTAT	1.33
AGGTACTCGG	0.972
TGATGAGTAG	0.997
GCAAAACATG	3.83
GACCTGCAGA	0.98
TAAGGCCCGT	0.97
AATTATAACA	1
GTTAGCAACC	1.13
CATTGTAAAA	0.97
CAACCCTAGC	1.07
GAGGTGAAAC	0.99
GATAGGAAGA	1.03
AAAGTTCGCG	0.971
GTACAGGAAC	1.05

Sequence	switch fluorescence ratio
ACGGTAGGCG	1.01
GAGCACGATC	1.11
TGTTCTGTTG	1.03
GATCAACGAA	0.966
CGGTTTTAG	0.985
TGATCTATCC	0.952
CCCTGATTAC	1.71
CCCGGTGTGG	1.15
TCCATTGCGC	1.2
TTTCGAGCGA	1.05
TAACCAGGCG	1.24
GGACGTCTGG	0.965
TGCTGGCTAG	0.99
GAGTACGGA	1.03
CTTTGGTCGT	0.929
GAGATTTGCA	1
AGATCGGTTA	0.949
GTCCTTCTAT	1.03
GATCAGGGTT	0.937
TAATTCATCC	1.03
CAAATTCCA	0.995
CGACTTGCGA	1.13
TCATTAGCGC	1
GGCGCAGGG	1.2
TGTTTACTAT	1

Sequence	switch fluorescence ratio
CAGCCCTACT	1.14
CAGTGAGCGA	1.08
CAACCGGTGG	1.02
CAAACGAGGG	1.01
ATGAACTGAT	1.04
AGCGTCATCA	0.984
AATTCGATGT	0.967
TATACTGAGA	1.05
CTCACGTAGA	1.13
TCTATTGAGG	1.01
AAGTGACGAG	0.958
CATCCGATGG	1.41
TTACGTGAAG	0.987
TGAAGGAATC	1.03
GATCCCCCCA	1.06
CATAGTACAA	1.06
CCCCCATGGG	1.6
AATCAAACCA	1.04
AACTTGAGCT	1.01
CCGGTACCAA	1.6
TCTAGCCTGC	0.967
AACGGCGTCG	1.01
GGACCCTAGA	1.01
GGGGACCTCG	0.984
TTCGTCGGTC	0.97

Sequence	switch fluorescence ratio
CCCAGTAACG	1.02
GTACTGAACC	1.24
AGCTGCGGAT	1
CACTGGCTAT	1
AGGGAAATCC	1.04
ATACAATTCA	0.989
CGGGAAGCGT	0.949
GGCGGTGGGG	1.04
GGCTTTAATA	0.956
CGTGGCTCGG	1.01
TACGATACTG	1.48
CCATTCGGCG	1.02
TTACTTCAGA	1.01
GACCACCCAA	1.28
AAATCAAGGT	1.02
TTATTGGACA	0.983
CCGGTGGTGC	1.04
AAAGTGGTGC	0.988
GTACCGTCGC	1.05
AACGTTCACG	1
AAGTACAGTA	1.18
CTGGGATTTA	0.972
AACCATGCCG	1.01
CGTTGGCTGA	1
TAATTTTGTC	1.05

Sequence	switch fluorescence ratio
GAAGGGCGCA	0.992
AAAGTGGGAC	0.983
CTTTATAAAT	0.984
GGGTATAAAC	0.985
TGATACAGTA	0.967
GTGTCCGTCA	0.996
TCCTCGTCGC	2.23
AGTGAAAGCT	1.04
CTGTGCAGGC	1.45
TAACTGACCA	1.1
TGGTCTATAC	1.41
CGGACCTCT	0.952
AGATTTGGA	1.02
GCCAGGTACG	1.07
TGAACGGGGT	0.987
AGTGTTTGCG	0.985
GAATGGGGAG	1.01
ATGTCACATA	0.979
TCAAATCTTT	0.991
ATGGTCATCA	0.987
CTGGAGGAGT	1.09
TACATGGGGT	1.01
GGTGGCTGCG	0.996
CATCAGCAGA	2.29
GAATTCGGGT	1.03

Sequence	switch fluorescence ratio
AGAGGGTGT	1.09
GGATCAGTGG	0.986
GCCTCCGCGT	4.61
CCTAATCCAT	0.981
CCTATTAGGT	0.989
TTTCTGAAAA	1.05
GCTGGTGTCC	1.01
GTTAGACGC	1.06
TTTCTGGCTC	0.963
CTTTATACTA	0.972
TAGAAGGAG	1.04
GGTAGCCCAG	0.994
GTACTTACAT	1.22
CTATTCGTTC	0.986
GGGTTGCTCT	0.979
CGTTTTCGTG	0.996
AAGAAAGCGT	1.03
TGCGTCTTAG	0.946
TTCCCATATT	1.01
ATCCCAACGT	1
CTGTACCGGA	0.947
GAGCTAGTAT	1.04
ATTGGTTATC	0.999
GTCGCTTACT	1.4
CACTACTTT	1.03

Sequence	switch fluorescence ratio
TTCTAGCGCC	0.986
CGCCGAACGA	1.03
TAGCATATTG	1.01
ACTAGCCCAG	1.77
TGGTCTCGAG	0.964
AGAACCTTCT	2.15
CAGAGTCACC	1.04
GATTCACAAT	1.02
ATTGCAGATT	0.953
GGGAAGGGA	1.01
CTTAAGGCCA	0.999
CAATGGGCCT	0.984
CTATACTGGT	0.974
GTGGGACAGT	0.917
GAGATAGG	0.997
CCGGGAAGAA	1.03
GTAACACGGC	0.962
CAGGTGGGTA	1.19
TTGTTGATAT	1.04
CCTAAATATA	1.29
ACAGCAAGCA	1.19
GATAAGTACG	1.23
CCCGACGCGG	4.57
GCCAATTTAG	1.02
GTGGGAACGG	1.02
